# Article PMC4336329 (PLoS ONE, 2015)
# About 14,000 (4.5%) of roughly 310,000 compounds showed an effect of 50% or more. The effect is printed as a negative number. The list shows a part of the results.
# Target: human ether-à-go-go-related gene (hERG) potassium channel (human, UniProt Q12809)
# Test: primary screen, population patch clamp on CHO cells stably expressing hERG
# 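Further: peak tail current of the secondary pulse compared with the same well before compound.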
# Sequence of human ether-à-go-go-related gene (hERG) potassium channel (Q12809 whole entry, looked up): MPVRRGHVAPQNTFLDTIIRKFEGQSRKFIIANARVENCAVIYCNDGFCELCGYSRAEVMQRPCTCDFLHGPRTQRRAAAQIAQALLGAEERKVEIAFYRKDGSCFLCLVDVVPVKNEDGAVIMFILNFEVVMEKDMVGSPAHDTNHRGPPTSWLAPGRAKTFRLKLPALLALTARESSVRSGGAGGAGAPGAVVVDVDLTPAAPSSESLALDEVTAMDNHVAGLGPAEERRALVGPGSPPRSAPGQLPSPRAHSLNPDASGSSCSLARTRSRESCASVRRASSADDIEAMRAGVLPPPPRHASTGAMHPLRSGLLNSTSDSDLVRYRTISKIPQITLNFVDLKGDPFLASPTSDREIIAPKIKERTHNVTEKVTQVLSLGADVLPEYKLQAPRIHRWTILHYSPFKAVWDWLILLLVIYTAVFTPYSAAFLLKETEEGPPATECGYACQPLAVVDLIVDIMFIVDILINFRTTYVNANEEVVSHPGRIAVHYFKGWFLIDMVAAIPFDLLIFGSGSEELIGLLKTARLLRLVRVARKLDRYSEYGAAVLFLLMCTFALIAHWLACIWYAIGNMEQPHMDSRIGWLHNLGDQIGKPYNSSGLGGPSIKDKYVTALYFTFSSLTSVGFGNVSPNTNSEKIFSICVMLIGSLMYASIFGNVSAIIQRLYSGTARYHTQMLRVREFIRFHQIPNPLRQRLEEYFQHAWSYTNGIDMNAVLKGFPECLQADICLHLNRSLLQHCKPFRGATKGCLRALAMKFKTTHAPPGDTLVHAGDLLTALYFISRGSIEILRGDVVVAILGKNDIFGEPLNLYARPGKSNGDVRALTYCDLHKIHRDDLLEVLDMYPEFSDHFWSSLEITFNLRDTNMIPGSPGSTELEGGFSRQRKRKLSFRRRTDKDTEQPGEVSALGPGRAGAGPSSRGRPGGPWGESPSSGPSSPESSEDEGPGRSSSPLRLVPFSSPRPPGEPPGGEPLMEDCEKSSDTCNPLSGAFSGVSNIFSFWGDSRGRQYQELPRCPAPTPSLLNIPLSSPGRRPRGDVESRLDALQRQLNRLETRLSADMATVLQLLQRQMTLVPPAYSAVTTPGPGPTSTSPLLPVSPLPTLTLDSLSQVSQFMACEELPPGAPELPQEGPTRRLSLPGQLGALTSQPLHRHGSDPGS
row,SMILES,"hERG current change (%, negative = inhibition) at 10uM"
1,COC(=O)c1ccc(COc2cccnc2[N+](=O)[O-])cc1,-3.09%
2,CCOC(=O)/C(C#N)=C/Nc1ccsc1C(=O)OC,11.5%
3,O=C(CP(=O)(c1ccccc1)c1ccccc1)Nc1cccc(CP(=O)(c2ccccc2)c2ccccc2)c1,6.43%
4,Cc1cc(C)c(C(=O)OCC(=O)NC(=O)c2ccccc2)c(C)c1,11.9%
5,COc1ccc(C2/C=C\CN(C(=O)C3CC3)[C@H](Cc3ccccc3)C(=O)N2Cc2ccc(F)cc2)cc1 (stereo partly shown),5.22%
6,C/C(N)=C(/C#N)C(=O)COC(=O)c1cc(-c2cccc(Br)c2)nc2ccccc12,-13.5%
7,CCCCn1c(O)c(/C=C2/C=CC=N2)c(=O)[nH]c1=O,6.34%
8,CCC1(c2ccccc2)NC(=O)N(Cc2ccc(C(=O)OC)cc2)C1=O (stereo not shown),-5.74%
9,S=C(NCc1cccnc1)Nc1cc(Cl)cc(Cl)c1,-4.96%
10,NS(=O)(=O)c1ccc(NC(=S)NCCc2ccccc2)cc1,22.1%
11,CC1(C)SC2c3ccccc3C(=O)N2[C@@H]1C(=O)NCCCN1CCOCC1 (stereo partly shown),7.08%
12,Cc1cc(C)c(C)c(OCC(=O)NCC2CCCO2)c1 (stereo not shown),-1.35%
13,Cc1nn(C(C)C)c(C)c1CN1CCC(C(=O)Nc2cccc(-c3cccc(F)c3)c2)CC1,-67.8%
14,CCOCCCNC(=O)c1c(-c2ccccc2)noc1C,9.79%
15,CCc1noc(C)c1C(=O)Nc1cccc(S(=O)(=O)N(C)c2ccccc2)c1,-22.1%
16,O=C(CC1C(=O)NCCN1Cc1c(F)cccc1Cl)NC1CCCC1 (stereo not shown),-2.51%
17,CCOc1ccc(NC(=O)CN(C)C(=O)c2ccc(N3CCCC3)c([N+](=O)[O-])c2)cc1OCC,-49.1%
18,NC(=O)c1nn(-c2ccccc2)nc1NC(=O)Cn1nnc(-c2ccccc2)n1,26%
19,COc1ccccc1-n1c(CNc2c(C)cccc2C)nnc1SCC(=O)N1CCOCC1,-19.1%
20,CCOC(=O)c1c(C)[nH]c(C(=O)COC(=O)CCS(=O)(=O)c2ccc(C)cc2)c1C,-2.1%
21,CCN1CCN(C2=C(NS(=O)(=O)c3ccccc3)C(=O)c3ccccc3C2=O)CC1,-5.21%
22,CCOC(=O)Nc1ccc(S(=O)(=O)N2CCOCC2)cc1,6.38%

row,SMILES,"hERG current change (%, negative = inhibition) at 10uM"
1,CCN(CC)C(=O)c1ccc(/C=C/c2c[nH]c3ccccc23)[n+](C)c1.[I-],21.4%
2,CCc1nnc(NS(=O)(=O)c2ccc(NC(=O)c3ccccc3C)cc2)s1,1.6%
3,O=C1C2CCCN2C(c2ccc(Br)cc2)N1c1ccc(F)cc1 (stereo not shown),-7.21%
4,O/N=C/c1cccc[n+]1CCCCCC[n+]1ccccc1/C=N/O.[Br-],20.1%
5,CCC(CC)NC(=O)COC(=O)c1ccc(OCc2ccc(C(C)=O)cc2OC)c(OC)c1,1.91%
6,CCn1nc(C)cc1C(=O)n1nc(C)c(Sc2ncccn2)c1C,18.3%
7,Cc1ccccc1OCCNc1cc(N2CCN(CCO)CC2)ccc1[N+](=O)[O-],-35.7%
8,Cc1ccc(N2C(=O)C3ON(c4ccccc4)C(c4ccncc4)C3C2=O)cc1 (stereo not shown),-13%
9,COc1cc2c(cc1NC(=O)/C=C/c1ccc([N+](=O)[O-])cc1)oc1ccccc12,13.5%
10,COC(=O)CNC(c1ccccc1)c1cc(C)ccc1NS(=O)(=O)c1ccc(C)cc1 (stereo not shown),-10.9%
11,NNC(=O)c1cccnc1Oc1ccccc1,8.19%
12,Cc1noc(C)c1COc1ccc(C(=O)NNC(=O)c2ccccc2O)cc1,2.21%
13,O=P(c1ccccc1)(c1ccccc1)c1cc(S(=O)(=O)[O-])ccc1O.[Na+],17.7%
14,O=C(NN1C(=O)C2C3C=CC(C4CC34)C2C1=O)c1ccc(Cl)cc1Cl (stereo not shown),3.48%
15,O=C(CSc1ccccn1)Nc1ccc2c(c1)oc1ccccc12,12.8%
16,COc1cc(/C=C2/C(=O)N(c3ccc(Br)cc3)N=C2C)cc([N+](=O)[O-])c1O,17.4%
17,O=C(N/N=C1\CCSc2ccc(F)cc21)c1cccnc1,6.42%
18,COc1ccccc1CNC(=O)CCCn1c(=O)c2ccccc2n(CC(=O)NC2CCCC2)c1=O,4.29%
19,COc1ccc(-c2nnc(NC(=O)c3cc(C)on3)s2)cc1,-20.3%
20,COc1c(C)cc(S(=O)(=O)NC2CC(C)(C)NC(C)(C)C2)c(C)c1C,-4.41%
21,CCOC(=O)c1ccc(-c2ccc(/C=N/NC(=O)CN(c3ccccc3Cl)S(C)(=O)=O)o2)cc1,0.449%
